Reference: the supplement of paper PMC5499739
In all, about 16,000 sequences were measured (“Z-score”: median about -0.37, highest 2% from about 3.1 on). The list shows a part of the results.

Each sequence was assayed on RBM10 RRM1-ZnF-RRM2 (GST-tagged construct) (assay: RNAcompete 7-mer binding Z-score; higher = stronger binding preference).
Description: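 RNAcompete: 20 pmol GST-tagged RBM10 RNA-binding constructs were incubated with a designed RNA pool of about 241,000 sequences up to 41 nt (1.5 nmol) on glutathione beads for 30 min at 4 °C and washed. Bound RNAs were identified by microarray hybridisation. Each RNA 7-mer is scored by a one-sided Z-score of its enrichment, computed over probes that contain the 7-mer within longer pool sequences.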

Going from GAAUACA to UAUUCUG, the “RNAcompete 7-mer binding Z-score” value falls from -0.0561 to -0.639.

First: GCAAAAU
Second: CGACUAC
The “RNAcompete 7-mer binding Z-score” value of the first is higher: -0.0998 for the first, -0.544 for the second.

First: UCUUUGA
Second: CACGACA
The “RNAcompete 7-mer binding Z-score” value of the first is lower: -0.719 for the first, -0.162 for the second.

Going from AGCGAUG to GUAAGAU, the “RNAcompete 7-mer binding Z-score” value falls from 1.05 to 0.541.

Compared with UCAAGCC, CAGGUCG is higher in “RNAcompete 7-mer binding Z-score” value: -0.854 for the first, 0.727 for the second.

Going from AGAUCAU to GCAGUCC, the “RNAcompete 7-mer binding Z-score” value falls from -0.541 to -0.613.

Going from ACUCCAG to GUUGAAA, the “RNAcompete 7-mer binding Z-score” value rises from -0.548 to 0.213.

Going from CACCGAU to UUGAGAG, the “RNAcompete 7-mer binding Z-score” value rises from -0.584 to 0.457.

Compared with GUUCCUU, GUUCUCU is lower in “RNAcompete 7-mer binding Z-score” value: -0.661 for the first, -0.788 for the second.

Going from AAUAUAU to UUGGCCC, the “RNAcompete 7-mer binding Z-score” value falls from -0.275 to -0.763.

Going from GGGGCAU to UACCUAU, the “RNAcompete 7-mer binding Z-score” value falls from 2.49 to -0.555.

First: CGUAGGG
Second: AUGGGGA
The “RNAcompete 7-mer binding Z-score” value of the first is lower: 2.3 for the first, 4.23 for the second.

Going from AUCGGUC to GGGUGCA, the “RNAcompete 7-mer binding Z-score” value rises from -0.431 to 3.

Going from UCGGAAU to UGCCCGU, the “RNAcompete 7-mer binding Z-score” value falls from 0.0641 to -0.653.

Going from CCUACUU to GGCGGCA, the “RNAcompete 7-mer binding Z-score” value rises from -0.996 to 1.12.

Going from CGGUGCA to AGAUGGC, the “RNAcompete 7-mer binding Z-score” value rises from 0.202 to 0.596.

First: AACAGAC
Second: CAAAGUA
The “RNAcompete 7-mer binding Z-score” value of the first is higher: -0.0415 for the first, -0.0889 for the second.

Going from GGCAUAA to GGCUAAA, the “RNAcompete 7-mer binding Z-score” value rises from 0.29 to 0.661.

Compared with GCUUUGG, UGCAGUA is higher in “RNAcompete 7-mer binding Z-score” value: -0.242 for the first, 0.0058 for the second.

Going from UUGAUCU to GGUCCGU, the “RNAcompete 7-mer binding Z-score” value rises from -0.639 to 0.301.

Going from CGCCUAC to GAUGUCC, the “RNAcompete 7-mer binding Z-score” value rises from -0.817 to -0.712.

Going from AGUGGCA to GCUUGGA, the “RNAcompete 7-mer binding Z-score” value falls from 1.68 to -0.00148.

Going from GGUAAUA to GAGUACA, the “RNAcompete 7-mer binding Z-score” value falls from 1.02 to 0.334.

Compared with UAGAUCU, GGCACUA is higher in “RNAcompete 7-mer binding Z-score” value: -0.602 for the first, 0.224 for the second.

Compared with UACAGUA, GAUCCGA is lower in “RNAcompete 7-mer binding Z-score” value: 0.137 for the first, -0.562 for the second.

Going from GCUUUUU to GUUUGCG, the “RNAcompete 7-mer binding Z-score” value rises from -0.861 to -0.118.

First: CUAGAAA
Second: CGUAUAC
The “RNAcompete 7-mer binding Z-score” value of the first is lower: -0.479 for the first, -0.435 for the second.

Compared with UCCAAUA, ACCGCGU is lower in “RNAcompete 7-mer binding Z-score” value: -0.307 for the first, -0.744 for the second.

Compared with CCUAAAA, UGCCCGG is higher in “RNAcompete 7-mer binding Z-score” value: -0.785 for the first, -0.413 for the second.

First: ACAAAGC
Second: GCUAAAG
The “RNAcompete 7-mer binding Z-score” value of the first is lower: -0.413 for the first, 0.0349 for the second.

Going from AUUAUAC to UAUUCUA, the “RNAcompete 7-mer binding Z-score” value falls from -0.646 to -0.795.

Compared with AUAGGGU, CUGCUGG is lower in “RNAcompete 7-mer binding Z-score” value: 4.33 for the first, -0.468 for the second.

Compared with UAGUUUA, UUUCAGC is lower in “RNAcompete 7-mer binding Z-score” value: -0.34 for the first, -0.81 for the second.

Compared with AAAUGGC, GAAACCC is lower in “RNAcompete 7-mer binding Z-score” value: 1.42 for the first, -0.653 for the second.

Compared with CAUAUAC, GAUAUGG is higher in “RNAcompete 7-mer binding Z-score” value: -0.664 for the first, 3.32 for the second.

Going from GAAAAAA to UCCUCGC, the “RNAcompete 7-mer binding Z-score” value falls from 0.359 to -0.825.

Compared with GCAAUAA, UGGUGUU is higher in “RNAcompete 7-mer binding Z-score” value: 0.0349 for the first, 0.752 for the second.

Going from UCACCUC to GCUCGUA, the “RNAcompete 7-mer binding Z-score” value rises from -0.734 to -0.395.

Going from CCUAACU to CUUUGUU, the “RNAcompete 7-mer binding Z-score” value falls from -0.766 to -0.948.

Going from ACACAAA to GGUGGCG, the “RNAcompete 7-mer binding Z-score” value rises from -0.34 to 2.88.

Going from AUGACUU to AAGCGCA, the “RNAcompete 7-mer binding Z-score” value rises from -0.836 to -0.107.

First: UGACUAC
Second: CGCCGUU
The “RNAcompete 7-mer binding Z-score” value of the first is higher: -0.486 for the first, -0.683 for the second.

Compared with AAGACAC, UGGUCUG is higher in “RNAcompete 7-mer binding Z-score” value: -0.311 for the first, 0.0532 for the second.

Going from CUCGUCU to CAUAACU, the “RNAcompete 7-mer binding Z-score” value rises from -0.741 to -0.592.

First: UUGAAAU
Second: UGUGUAA
The “RNAcompete 7-mer binding Z-score” value of the first is lower: -0.417 for the first, 0.202 for the second.

First: CGUAAUA
Second: AGUUUCA
The “RNAcompete 7-mer binding Z-score” value of the first is lower: -0.46 for the first, -0.366 for the second.

Compared with UGAAUGC, UAUCACG is lower in “RNAcompete 7-mer binding Z-score” value: -0.358 for the first, -0.435 for the second.

Going from GGAAACA to CUAUCCU, the “RNAcompete 7-mer binding Z-score” value falls from 1.91 to -0.934.

First: CUUUGGA
Second: CCUGCCU
The “RNAcompete 7-mer binding Z-score” value of the first is higher: -0.42 for the first, -0.948 for the second.

First: GUUAUAU
Second: GGAGCAA
The “RNAcompete 7-mer binding Z-score” value of the first is lower: -0.333 for the first, 1.93 for the second.

First: GUGAAGA
Second: UCAUCCA
The “RNAcompete 7-mer binding Z-score” value of the first is higher: 0.844 for the first, -0.661 for the second.

First: CUUGGAC
Second: AUGCGUA
The “RNAcompete 7-mer binding Z-score” value of the first is lower: -0.719 for the first, -0.0379 for the second.

First: UAUCCAC
Second: GCGCAAG
The “RNAcompete 7-mer binding Z-score” value of the first is lower: -0.635 for the first, -0.0197 for the second.

Going from GAGGACA to UUUGGUC, the “RNAcompete 7-mer binding Z-score” value falls from 1.54 to -0.38.

Compared with GUUUAAA, GGCAAAU is higher in “RNAcompete 7-mer binding Z-score” value: -0.42 for the first, 0.53 for the second.

Compared with UUGUUUC, CAGUGAU is higher in “RNAcompete 7-mer binding Z-score” value: -0.639 for the first, -0.165 for the second.

Compared with CUGAUGU, GUGGACA is higher in “RNAcompete 7-mer binding Z-score” value: -0.464 for the first, 1.79 for the second.

Compared with CUGGCGG, UACCAGU is lower in “RNAcompete 7-mer binding Z-score” value: 0.541 for the first, -0.439 for the second.

Going from AGCUUGC to AGAUAGG, the “RNAcompete 7-mer binding Z-score” value rises from -0.708 to 2.87.

Compared with UCAGGAC, UACCAAC is lower in “RNAcompete 7-mer binding Z-score” value: 0.0277 for the first, -0.584 for the second.

First: UGCGGGA
Second: AGGUGAU
The “RNAcompete 7-mer binding Z-score” value of the first is higher: 1.7 for the first, 1.62 for the second.

Going from GAAAGUA to GCGGCCC, the “RNAcompete 7-mer binding Z-score” value falls from 0.596 to -0.409.

Compared with GAGUAUU, UGAAGUC is lower in “RNAcompete 7-mer binding Z-score” value: -0.133 for the first, -0.351 for the second.

Compared with GCGCUGU, UUUGUUU is lower in “RNAcompete 7-mer binding Z-score” value: -0.191 for the first, -0.428 for the second.

First: CAGUACA
Second: CUCCGGG
The “RNAcompete 7-mer binding Z-score” value of the first is lower: -0.0816 for the first, 0.297 for the second.

First: GUGGAGU
Second: GAACUCA
The “RNAcompete 7-mer binding Z-score” value of the first is higher: 2.86 for the first, -0.5 for the second.

Going from CCUAUGA to AUAUACA, the “RNAcompete 7-mer binding Z-score” value rises from -0.785 to -0.373.

Going from GUUCUGU to CCACACA, the “RNAcompete 7-mer binding Z-score” value falls from -0.446 to -0.668.

First: CGCCGCA
Second: AUACCUA
The “RNAcompete 7-mer binding Z-score” value of the first is higher: -0.675 for the first, -0.788 for the second.

Compared with AUACGCA, AUUCCGA is lower in “RNAcompete 7-mer binding Z-score” value: -0.282 for the first, -0.701 for the second.

Going from GCUGGCU to UUUGGCC, the “RNAcompete 7-mer binding Z-score” value falls from -0.118 to -0.694.

Going from CAGUUAA to UACCCAC, the “RNAcompete 7-mer binding Z-score” value falls from -0.468 to -0.672.

Going from AACAGCA to GAGGAUG, the “RNAcompete 7-mer binding Z-score” value rises from -0.00512 to 2.57.

Going from CAUGCAA to UGGCGUU, the “RNAcompete 7-mer binding Z-score” value rises from -0.289 to 0.0896.

First: CGACGUA
Second: CGUUAUA
The “RNAcompete 7-mer binding Z-score” value of the first is higher: 0.0459 for the first, -0.453 for the second.

First: GAGGGCG
Second: UGACAGA
The “RNAcompete 7-mer binding Z-score” value of the first is higher: 2.81 for the first, 0.144 for the second.

Going from CCAUUCC to AUAGCAG, the “RNAcompete 7-mer binding Z-score” value rises from -0.781 to 0.465.

Going from AGAAGAG to CUUACCU, the “RNAcompete 7-mer binding Z-score” value falls from 1.61 to -0.927.

Compared with UGAUGCG, GUGAUUC is lower in “RNAcompete 7-mer binding Z-score” value: 0.414 for the first, -0.176 for the second.

Compared with ACGUCAG, GUGUUAA is higher in “RNAcompete 7-mer binding Z-score” value: -0.329 for the first, 0.141 for the second.

Compared with CCCUGGA, GGCACGA is higher in “RNAcompete 7-mer binding Z-score” value: -0.326 for the first, 0.505 for the second.

First: AGUUCCC
Second: UCAUCCC
The “RNAcompete 7-mer binding Z-score” value of the first is higher: -0.595 for the first, -0.806 for the second.

Going from CAAUCAG to CGGAUGA, the “RNAcompete 7-mer binding Z-score” value rises from 0.00944 to 0.887.

Going from ACCUUAU to CCGGCUU, the “RNAcompete 7-mer binding Z-score” value rises from -0.981 to -0.879.

Going from CGAUCAC to UAAUUGU, the “RNAcompete 7-mer binding Z-score” value rises from -0.657 to -0.624.

Going from UGAAUCU to ACGAUUG, the “RNAcompete 7-mer binding Z-score” value rises from -0.57 to -0.0889.

Going from CGUAGAA to UGUGCUU, the “RNAcompete 7-mer binding Z-score” value falls from 0.181 to -0.719.

Compared with CCGGCUG, GCAACUG is higher in “RNAcompete 7-mer binding Z-score” value: -0.468 for the first, -0.213 for the second.

First: GCGUAAC
Second: GAUAUCC
The “RNAcompete 7-mer binding Z-score” value of the first is higher: -0.144 for the first, -0.573 for the second.

First: ACGUAGC
Second: AUUACAA
The “RNAcompete 7-mer binding Z-score” value of the first is higher: -0.0561 for the first, -0.3 for the second.

First: AUUCCUG
Second: UGUCUCC
The “RNAcompete 7-mer binding Z-score” value of the first is higher: -0.832 for the first, -0.836 for the second.

For CAUGCUC, the “RNAcompete 7-mer binding Z-score” value was -0.77.
